Whole data set: some 33,000 sequences, median “E-score (-0.5 to 0.5)” near -0.01, cut for the highest 2% near 0.26. The list shows a part of the results.
Molecular target: Ste12 (UniProt P13574)
Assay: PBM E-score (8-mer binding enrichment) (E-score (-0.5 to 0.5)); higher = stronger / more preferred TF binding; most listed sequences are background and not binding sites
Details: protein concentration: 200 nM; construct: GST-DNA-binding domain
Outline: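 E-scores (a modified Wilcoxon-Mann-Whitney statistic) were assigned by the Universal PBM Analysis Suite to every ungapped eight-base word pooled with its reverse complement. The input came from universal all-10-mer Agilent arrays made double-stranded by primer extension and probed with GST-tagged yeast transcription factors at about 100-200 nM. Fluorescent anti-GST detected bound protein, and masliner normalised the scans.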

Sequence	PBM E-score
TGCCTGAA	-0.0642
AATCTCCG	-0.0853
ATAAACCA	0.128
ATCGCCTC	0.038
ACTGCCGG	-0.00377
AAAGTATC	0.0864
AGCATTAC	-0.087
GGGATGAA	-0.0298
AAAACTTC	0.0623
AGTGCTTC	-0.0683
GAAGGTGA	-0.00036
ACTACTGA	-0.132
AGCATGAT	0.0231
GGGATCCC	-0.0609
CAGTCTCA	0.0426
ATGCCAGC	-0.22
AGGGCACA	-0.146
GATCCTCA	-0.0335
ATGGACGC	-0.0759
AGACGTAG	-0.222
AGTAACAT	0.0975
AAGGCCGA	-0.0307
ACCTACGC	-0.0219
CGGCCTCC	0.0559
GAATAGGC	-0.0142

Sequence	PBM E-score
AAACGATC	0.0755
AGCTGACC	-0.00439
CGCGAACG	-0.082
ACCTCCCC	0.161
CCCGCCCG	0.233
ATACCTCC	-0.0155
ACGCTCCA	-0.0922
GCGGTAAA	0.134
TCATACCA	-0.0469
ACAGGATA	0.0107
TCTCCGAA	-0.101
AACATACC	0.0852
AGATTGAA	0.101
CAGACTTA	-0.224
CGCGGTAG	0.0609
GCTACAGA	-0.199
CCTGACCA	0.0373
GATATCAA	0.129
GAACTGCA	0.00164
TGTGGCAA	0.0182
GACTCCAA	-0.141
CAAGACTA	0.0335
CATGGGAG	0.122
GCGACAAA	0.114
ACACTGAA	0.184

Sequence	PBM E-score
ATCTCAAA	0.27
GCATACCC	0.0634
CTCTGCCA	-0.0982
CTCGGACA	0.00957
CCTAACTC	-0.0205
CAAACGTC	0.0704
GCTCGTTA	-0.122
ATAACAAC	0.141
ATATTAAC	0.285
CCACAATA	0.132
CTAATTGA	0.114
CGTAGGCA	-0.226
AATGGCTC	0.0653
GCAATCGC	-0.128
ATTGTCTA	0.0212
ATCTGATA	0.114
ATTCACCA	0.00077
CTTGTACA	0.0503
CTACACCA	0.0459
AAACGAGC	0.175
ACACGTCT	-0.185
CCAACATC	0.0236
ACATGGTC	0.109
CCTGAGCC	-0.0591
AAACCGCT	-0.0607

Sequence	PBM E-score
TCTTGGCA	0.0241
AATCTAAG	0.0747
AGTTTAAT	0.238
CCAAGCTA	-0.104
AAATAGAG	0.0914
CGGGAACA	0.0209
GAAGAGTA	-0.00644
AACGACAG	0.0325
GACGCCAA	0.0781
GGGCAAAC	0.0104
TAGCCGGA	0.0132
CCCAGAAA	0.103
ACCAAGCC	-0.114
AGTTGTGG	0.0605
AAGGCTAC	-0.0373
ACGTGTGG	-0.047
CTCGGCAC	-0.00063
CGTTCTGC	-0.0359
GATGCGAA	-0.0468
ATGTATCC	0.0246
ATTGGAAG	0.0324
GCACAATA	-0.0437
ACCCTGCC	-0.0193
GGCTCGCA	-0.137
ACAAATCT	0.147

Sequence	PBM E-score
ATACCATG	-0.029
AGGAATAA	-0.0181
ACCTAAGA	0.0806
CCGATTTA	0.199
CGCCTGGC	-0.11
ACAAGACG	-0.132
CATCCGTA	0.0512
GAGCACCA	-0.0761
CACACGTG	0.0372
CCGCCAAG	-0.133
CAAGACTG	-0.101
AGGGGTGG	0.258
GATCAAGC	-0.0184
CTGGTGAC	-0.184
GGAAAGCA	-0.0204
CAGATTGA	-0.0393
CAATAGTG	0.122
GGTGGAGA	-0.129
AGTAAGGG	-0.0174
ATCTAGTG	-0.0515
CGACTTAA	-0.107
CGAACTGC	-0.134
CTCCTGCC	-0.154
GGCAATAA	0.0297
AGAAACTG	0.102

Sequence	PBM E-score
TGTCGAAA	0.0506
AAAGAGAG	0.102
CCCGGAAA	0.218
ACTAGCGC	-0.0232
CAGGATCG	0.0943
ACACCGAG	0.0488
CCTGGAAG	-0.195
ACTGGCGA	-0.158
ACGACATC	-0.115
CACTACCC	-0.16
AATGGAAG	-0.0266
CTGCCGAA	-0.0895
ACTAATCA	0.0131
CAATTTCG	0.104
GTTGGATA	-0.158
ATAGGGTG	-0.145
AACTGATC	0.0373
CCGCAACG	0.0364
ATTATCAA	0.133
TCATATCA	0.0104
CCATCCAC	-0.044
TCAAGAGA	-0.0491
ATCGCTCC	-0.162
CTCCGACA	0.0703
ACTCTTGG	-0.0414

Sequence	PBM E-score
CCCATCGG	-0.0908
AGGCTCTA	-0.265
GCGCGTAC	-0.0343
CAGCCCGG	0.00732
AGTCATCC	-0.142
CATAAGGA	-0.0623
GACTATGC	-0.0435
CCTATCCA	-0.165
CCGGAGCC	0.104
GCCTGGCC	-0.168
ATACGATA	0.0198
ACCTTGAA	0.107
AAGCCTTG	-0.00117
ACGTAAGT	-0.295
AGGGATGC	-0.175
AAATTACG	0.223
ACGAACTG	-0.18
ATTTGTCG	0.189
ACTATGAC	-0.0384
AACGTATG	-0.0675
ACCACCCG	-0.106
CGGGAGAA	0.0131

Reference: the supplement of paper PMC3334620
